# Some of the results follow.
# B1: F17fG (Escherichia coli), Q9RH91 (protein)
# chain: MTNFYKVFLAVFILVCCNISHAAVSFIGSTENDVGPSQGSYSSTHAMDNLPFVYNTGHNIGYQNANVWRISGGFCVGLDGKVDLPVVGSLDGQSIYGLTEEVGLLIWMGDTNYSRGTAMSGNSWENVFSGWCVGNYVSTQGLSVHVRPVILKRNSSAQYSVQKTSIGSIRMRPYNGSSAGSVQTTVNFSLNPFTLNDTVTSCRLLTPSAVNVSLAAISAGQLPSSGDEVVAGTTSLKLQCDAGVTVWATLTDATTPSNRSDILTLTGASTATGVGLRIYKNTDSTPLKFGPDSPVKGNENQWQLSTGTETSPSVRLYVKYVNTGEGINPGTVNGISTFTFSYQ
# Experiments:
# Assay in all cases: glycan array binding signal (z-score within array); higher = stronger binding
# Conditions in all cases: glycan notation: IUPAC condensed, linker removed
# [1] = target: Neu5Ac(a2-3)Gal(b1-3)[Neu5Ac(a2-6)]GalNAc
# In short: (§1)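 Arrays were curated from the Consortium for Functional Glycomics database, 3228 in total, and kept only where the protein sequence was available. Binding is expressed as a within-array Z-score. This score was averaged across arrays of the same protein sequence at different concentrations or buffers and across linkers, and negative values can be read as non-binding.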
# Neu5Ac(a2-3)Gal(b1-4)Glc = target: Neu5Ac(a2-3)Gal(b1-4)Glc
# In short: as §1
# [2] = target: Neu5Ac(a2-3)Gal(b1-4)GlcNAc
# In short: as §1
# [3] = target: Neu5Ac(a2-3)Gal(b1-4)GlcNAc(b1-2)Man(a1-3)[Neu5Ac(a2-3)Gal(b1-4)GlcNAc(b1-2)Man(a1-6)]Man(b1-4)GlcNAc(b1-4)GlcNAc
# In short: as §1
# [4] = target: Neu5Ac(a2-3)Gal(b1-4)GlcNAc(b1-3)Gal(b1-4)GlcNAc
# In short: as §1
# [5] = target: Neu5Ac(a2-3)Gal(b1-4)GlcNAc(b1-3)Gal(b1-4)GlcNAc(b1-3)Gal(b1-4)GlcNAc
# In short: as §1
# [6] = target: Neu5Ac(a2-3)Gal(b1-4)GlcNAc(b1-3)Gal(b1-4)[Fuc(a1-3)]GlcNAc
# In short: as §1
# [7] = target: Neu5Ac(a2-3)Gal(b1-4)GlcNAc6S
# In short: as §1
# [8] = target: Neu5Ac(a2-3)Gal(b1-4)[Fuc(a1-3)]GlcNAc
# In short: as §1
# [9] = target: Neu5Ac(a2-3)Gal(b1-4)[Fuc(a1-3)]GlcNAc(b1-3)Gal
# In short: as §1
# [10] = target: Neu5Ac(a2-3)Gal(b1-4)[Fuc(a1-3)]GlcNAc(b1-3)Gal(b1-4)GlcNAc
# In short: as §1
# [11] = target: Neu5Ac(a2-3)Gal(b1-4)[Fuc(a1-3)]GlcNAc(b1-3)Gal(b1-4)[Fuc(a1-3)]GlcNAc(b1-3)Gal(b1-4)[Fuc(a1-3)]GlcNAc
# In short: as §1
# [12] = target: Neu5Ac(a2-3)Gal(b1-4)[Fuc(a1-3)]GlcNAc6S
# In short: as §1
# [13] = target: Neu5Ac(a2-3)Gal6S(b1-4)GlcNAc
# In short: as §1
# [14] = target: Neu5Ac(a2-3)Gal6S(b1-4)[Fuc(a1-3)]GlcNAc
# In short: as §1
# Neu5Ac(a2-3)GalNAc = target: Neu5Ac(a2-3)GalNAc
# In short: as §1
# [15] = target: Neu5Ac(a2-3)GalNAc(b1-4)GlcNAc
# In short: as §1
# [16] = target: Neu5Ac(a2-3)[GalNAc(b1-4)]Gal(b1-4)Glc
# In short: as §1
# [17] = target: Neu5Ac(a2-3)[GalNAc(b1-4)]Gal(b1-4)GlcNAc
# In short: as §1
# [18] = target: Neu5Ac(a2-3)[Neu5Ac(a2-6)]GalNAc
# In short: as §1
# Neu5Ac(a2-6)Gal = target: Neu5Ac(a2-6)Gal
# In short: as §1
# Neu5Ac(a2-6)Gal(b1-4)Glc = target: Neu5Ac(a2-6)Gal(b1-4)Glc
# In short: as §1
# [19] = target: Neu5Ac(a2-6)Gal(b1-4)GlcNAc
# In short: as §1
# [20] = target: Neu5Ac(a2-6)Gal(b1-4)GlcNAc(b1-3)Gal(b1-4)GlcNAc
# In short: as §1
# [21] = target: Neu5Ac(a2-6)Gal(b1-4)GlcNAc(b1-3)Gal(b1-4)[Fuc(a1-3)]GlcNAc(b1-3)Gal(b1-4)[Fuc(a1-3)]GlcNAc
# In short: as §1
# [22] = target: Neu5Ac(a2-6)Gal(b1-4)GlcNAc6S
# In short: as §1
# Neu5Ac(a2-6)GalNAc = target: Neu5Ac(a2-6)GalNAc
# In short: as §1
# [23] = target: Neu5Ac(a2-6)GalNAc(b1-4)GlcNAc
# In short: as §1
# Neu5Ac(a2-8)Neu5Ac = target: Neu5Ac(a2-8)Neu5Ac
# In short: as §1
# [24] = target: Neu5Ac(a2-8)Neu5Ac(a2-3)Gal(b1-4)Glc
# In short: as §1
# [25] = target: Neu5Ac(a2-8)Neu5Ac(a2-3)[GalNAc(b1-4)]Gal(b1-4)Glc
# In short: as §1
# [26] = target: Neu5Ac(a2-8)Neu5Ac(a2-8)Neu5Ac
# In short: as §1
# [27] = target: Neu5Ac(a2-8)Neu5Ac(a2-8)Neu5Ac(a2-3)Gal(b1-4)Glc
# In short: as §1
# [28] = target: Neu5Ac(a2-8)Neu5Ac(a2-8)Neu5Ac(a2-3)[GalNAc(b1-4)]Gal(b1-4)Glc
# In short: as §1
# [29] = target: Neu5Ac(a2-8)Neu5Ac(a2-8)Neu5Ac(a2-8)Neu5Ac(a2-3)[GalNAc(b1-4)]Gal(b1-4)Glc
# In short: as §1
# Neu5Ac(b1-6)GalNAc = target: Neu5Ac(b1-6)GalNAc
# In short: as §1
# [30] = target: Neu5Ac(b2-6)Gal(b1-4)GlcNAc
# In short: as §1
# [31] = target: Neu5Ac9Ac(a2-6)Gal(b1-4)GlcNAc
# In short: as §1
# [32] = target: Neu5Gc(a2-3)Gal(b1-3)GlcNAc
# In short: as §1
# [33] = target: Neu5Gc(a2-3)Gal(b1-3)[Fuc(a1-4)]GlcNAc
# In short: as §1
# Neu5Gc(a2-3)Gal(b1-4)Glc = target: Neu5Gc(a2-3)Gal(b1-4)Glc
# In short: as §1
# [34] = target: Neu5Gc(a2-3)Gal(b1-4)GlcNAc
# In short: as §1
# [35] = target: Neu5Gc(a2-3)Gal(b1-4)[Fuc(a1-3)]GlcNAc
# In short: as §1
# [36] = target: Neu5Gc(a2-6)Gal(b1-4)GlcNAc
# In short: as §1
# Neu5Gc(a2-6)GalNAc = target: Neu5Gc(a2-6)GalNAc
# In short: as §1
binder,measurement,setting,value
B1,glycan array binding signal (z-score),[1],-0.193
same,glycan array binding signal (z-score),Neu5Ac(a2-3)Gal(b1-4)Glc,-0.219
same,glycan array binding signal (z-score),[2],-0.292
same,glycan array binding signal (z-score),[3],-0.266
same,glycan array binding signal (z-score),[4],-0.346
same,glycan array binding signal (z-score),[5],-0.335
same,glycan array binding signal (z-score),[6],-0.068
same,glycan array binding signal (z-score),[7],-0.069
same,glycan array binding signal (z-score),[8],-0.286
same,glycan array binding signal (z-score),[9],-0.227
same,glycan array binding signal (z-score),[10],-0.23
same,glycan array binding signal (z-score),[11],-0.209
same,glycan array binding signal (z-score),[12],-0.2
same,glycan array binding signal (z-score),[13],0.007
same,glycan array binding signal (z-score),[14],-0.144
same,glycan array binding signal (z-score),Neu5Ac(a2-3)GalNAc,-0.146
same,glycan array binding signal (z-score),[15],-0.295
same,glycan array binding signal (z-score),[16],-0.33
same,glycan array binding signal (z-score),[17],-0.293
same,glycan array binding signal (z-score),[18],-0.085
same,glycan array binding signal (z-score),Neu5Ac(a2-6)Gal,-0.083
same,glycan array binding signal (z-score),Neu5Ac(a2-6)Gal(b1-4)Glc,-0.205
same,glycan array binding signal (z-score),[19],0.01
same,glycan array binding signal (z-score),[20],-0.167
same,glycan array binding signal (z-score),[21],-0.256
same,glycan array binding signal (z-score),[22],-0.161
same,glycan array binding signal (z-score),Neu5Ac(a2-6)GalNAc,-0.267
same,glycan array binding signal (z-score),[23],-0.157
same,glycan array binding signal (z-score),Neu5Ac(a2-8)Neu5Ac,-0.271
same,glycan array binding signal (z-score),[24],-0.347
same,glycan array binding signal (z-score),[25],-0.257
same,glycan array binding signal (z-score),[26],-0.132
same,glycan array binding signal (z-score),[27],-0.005
same,glycan array binding signal (z-score),[28],-0.208
same,glycan array binding signal (z-score),[29],0.011
same,glycan array binding signal (z-score),Neu5Ac(b1-6)GalNAc,-0.293
same,glycan array binding signal (z-score),[30],-0.149
same,glycan array binding signal (z-score),[31],0.019
same,glycan array binding signal (z-score),[32],-0.287
same,glycan array binding signal (z-score),[33],-0.305
same,glycan array binding signal (z-score),Neu5Gc(a2-3)Gal(b1-4)Glc,-0.295
same,glycan array binding signal (z-score),[34],-0.278
same,glycan array binding signal (z-score),[35],-0.269
same,glycan array binding signal (z-score),[36],-0.258
same,glycan array binding signal (z-score),Neu5Gc(a2-6)GalNAc,0.033
